Out of some 310,000 compounds screened, about 2,200 (0.71%) showed an effect of 50% or more. Effects have a minus sign here. Some of the results follow.
Molecular target: human ether-à-go-go-related gene (hERG) potassium channel (human, UniProt Q12809)
Assay: primary screen, population patch clamp on CHO cells stably expressing hERG

Sequence of human ether-à-go-go-related gene (hERG) potassium channel (Q12809 whole entry, looked up): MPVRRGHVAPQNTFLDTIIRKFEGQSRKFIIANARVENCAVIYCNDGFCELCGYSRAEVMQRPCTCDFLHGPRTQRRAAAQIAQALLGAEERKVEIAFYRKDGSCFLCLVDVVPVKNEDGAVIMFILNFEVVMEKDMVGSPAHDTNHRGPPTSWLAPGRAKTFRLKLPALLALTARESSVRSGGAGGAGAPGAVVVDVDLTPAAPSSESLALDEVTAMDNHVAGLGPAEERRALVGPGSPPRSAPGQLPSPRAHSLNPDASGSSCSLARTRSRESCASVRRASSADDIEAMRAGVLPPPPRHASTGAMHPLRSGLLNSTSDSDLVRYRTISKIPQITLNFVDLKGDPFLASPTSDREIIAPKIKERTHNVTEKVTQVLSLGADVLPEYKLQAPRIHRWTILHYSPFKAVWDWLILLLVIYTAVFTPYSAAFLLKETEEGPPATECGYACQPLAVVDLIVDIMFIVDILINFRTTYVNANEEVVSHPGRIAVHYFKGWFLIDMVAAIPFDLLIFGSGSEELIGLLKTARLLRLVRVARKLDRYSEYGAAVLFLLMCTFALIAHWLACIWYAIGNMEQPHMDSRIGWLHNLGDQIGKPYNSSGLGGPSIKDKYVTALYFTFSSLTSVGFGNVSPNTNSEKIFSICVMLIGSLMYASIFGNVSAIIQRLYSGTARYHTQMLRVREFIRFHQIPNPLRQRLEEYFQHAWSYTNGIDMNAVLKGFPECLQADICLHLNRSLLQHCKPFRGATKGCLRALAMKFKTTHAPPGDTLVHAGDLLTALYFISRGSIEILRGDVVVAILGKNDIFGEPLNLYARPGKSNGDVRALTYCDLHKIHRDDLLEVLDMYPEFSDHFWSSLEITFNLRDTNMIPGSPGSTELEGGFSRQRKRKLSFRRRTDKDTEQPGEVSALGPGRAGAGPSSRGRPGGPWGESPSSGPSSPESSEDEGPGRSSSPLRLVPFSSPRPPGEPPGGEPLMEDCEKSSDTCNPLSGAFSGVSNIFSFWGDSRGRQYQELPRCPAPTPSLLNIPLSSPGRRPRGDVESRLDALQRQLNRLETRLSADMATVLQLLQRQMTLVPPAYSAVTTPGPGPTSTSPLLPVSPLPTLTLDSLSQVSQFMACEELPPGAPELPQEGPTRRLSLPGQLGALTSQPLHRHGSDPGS

Compound	hERG current change (%, negative = inhibition) at 1uM
O=C(NCc1ccc(F)cc1)C(c1ccccc1)c1ccccc1	8.11%
Cc1ccc(S(=O)(=O)N(C)CC(=O)NCC(c2ccco2)N(C)C)cc1 (stereo not drawn)	4.17%
COc1ccccc1C(=O)N1CC(=O)Nc2ccc(C)cc2C1c1ccc(F)cc1 (stereo not drawn)	-22%
CS(=O)(=O)c1ccc(Cl)c(NC(=O)COC(=O)CCN=C2NS(=O)(=O)c3ccccc32)c1	-14%
CC(C)c1ccc(NC(=O)c2cc([N+](=O)[O-])ccc2N2CCOCC2)cc1	-5.4%
O=C(COc1ccccc1)Nc1ccc(Cl)cc1C(=O)c1ccccc1	6.97%
COc1ccccc1/C=C/C(=O)NCC(=O)N/N=C(/C)c1ccc(Cl)cc1	16%
O=C(Cc1cccs1)Nc1ccc(N2CCOCC2)cc1	19.6%
CCc1ccccc1S(=O)(=O)Cc1ccc(C(=O)N2CCN(c3ccccc3OC)CC2)o1	-3.08%
CCOC(=O)c1[nH]c(CSc2nnc(-c3ccncc3)n2CCOC)c(C(=O)OCC)c1C	-3.93%
COc1ccc(-c2c(C#N)c(N)n(N)c(=O)c2C#N)cc1Cl	14.6%
Cc1cc2cc3c(cc2nc1SCc1ccccn1)OCCO3	11.9%
COc1ccc(N(CC(=O)N2CCN(c3cccc(C)c3C)CC2)S(=O)(=O)c2c(C)noc2C)cc1	13.2%
N#Cc1c(N)nc(SC2CCCCC2=O)c(C#N)c1-c1ccco1 (stereo not drawn)	-2.08%
COc1cccc(CN(CC(=O)NCc2ccccc2)S(=O)(=O)CCl)c1	10.6%
COc1ccc(C(=O)NCC(=O)NCC(=O)OCC(=O)c2cccs2)cc1	6.28%
C=CCNC(=S)N/N=C(\C)c1ccc(-n2ccnc2)cc1	0.524%
O=C(COC(=O)CNC(=O)C1CCCCC1)Nc1cccc(F)c1	4.51%
CCOC(=O)c1c(NC(=O)c2cc(-c3ccc(O)cc3)on2)sc(C(C)=O)c1C	11.5%

Compound	hERG current change (%, negative = inhibition) at 1uM
CC(=O)N1CCN(c2ccc(NC(=O)c3ccc4c(c3)OCO4)cc2)CC1	1.35%
CCOC(=O)c1cnc(C(C)(C)C)[nH]c1=O	8.69%
CNC(C)c1cc(OC)ccc1OC (stereo not drawn)	14.1%
CC1=C(C(=O)N2CCCC(CCC(=O)NCc3ccccc3F)C2)OCCO1 (stereo not drawn)	7.2%
N#CCCn1cc(/C=N/NC(=O)c2ccncc2)c(-c2ccccc2)n1	-0.828%
COc1ccccc1N1CCN(C(=O)c2c(-c3ccccc3)noc2C)CC1	-29.2%
Cc1ccc(NC(=O)CO/N=C/c2ccc(N(C)C)cc2)cc1	24.7%
CCCC(=O)Nc1c2c(nn1-c1cccc(C)c1C)CS(=O)(=O)C2	4.62%
Cc1nc(NC2CCCC2)sc1C(=O)N(C)C	12.7%
CC(C)CC(C(=O)NCC1CCCO1)N(C(=O)Cn1nnc(-c2ccc(F)cc2)n1)c1ccccc1F (stereo not drawn)	-10.1%
CC(=O)c1cccc(N(C(=O)c2csnn2)C(C(=O)NC2CCCC2)c2ccccc2)c1 (stereo not drawn)	0.77%
O=C(O)CCCC(=O)NNC(=O)c1cccc(Br)c1	12.3%
CCCN1C2CCCC1CC(NC(=S)Nc1cccc(C)c1)C2 (stereo not drawn)	-12.7%
CCOC(=O)CSc1nnc2c3ccccc3n(C)c2n1	8.31%
S=C(NCc1ccco1)Nc1cc(Cl)c(Cl)cc1Cl	15.5%
COc1ccc(C(=S)NC2CCCCC2)cc1	-7.54%
CNC(=S)NNC(=O)c1cccn(Cc2ccc(Cl)cc2Cl)c1=O	0.881%
CN(CC(=O)Nc1ccc(F)cc1)C(=O)CSc1ccc2c(c1)OCCO2	1.22%
C=CCc1cccc(C=Nc2cccn3cc(-c4ccccc4)nc23)c1O	18%

Compound	hERG current change (%, negative = inhibition) at 1uM
CCN(CC)CCCNc1nc2cc(OC)c(OC)cc2c2nc(-c3ccccc3)nn12	2.16%
Cc1ccc(S(=O)(=O)N2CCOCC2)cc1NC(=O)C1=NN(c2ccccc2)C(=O)CC1	3.12%
CCOc1cc(/C=N/Nc2nc(N3CCCC3)nc(N3CCCC3)n2)ccc1O	-19.3%
O=C1CC(=O)N(c2cccc(Br)c2)C(=O)N1	5.54%
COc1ccccc1NS(=O)(=O)c1ccc(C(=O)NCC2(N(C)C)CCCCC2)cc1	17.4%
NC(=O)c1cc2ccncc2c2ccccc12	8.56%
CC(C)Nc1nc(Cl)nc(N(C#N)CN2C(=O)c3ccccc3C2=O)n1	7.53%
O=c1c2ccccc2[nH]c(=S)n1CCN1CCN(Cc2ccccc2)CC1	4.81%
Cc1c(CCOC(=O)c2cc([N+](=O)[O-])ccc2Cl)sc[n+]1CCCCS(=O)(=O)[O-]	7.4%
O=S(=O)(/C=C/c1ccccc1)NCc1ccccc1Cl	6.31%
CCC(=O)Nc1ccc(Cl)c(NC(=S)NC(=O)COc2ccccc2)c1	1.17%
CCOc1ccc(N2CC(C(=O)Oc3ccccc3)CC2=O)cc1 (stereo not drawn)	-7.71%
COC(=O)CC1=NN(c2ccc(OC)cc2)C(=O)C1	4.62%
CCN1CCC2(CC1)N=C(c1ccc(F)cc1)C(=S)N2	3.93%
CCN(CC(=O)Nc1c(F)cccc1F)C(=O)c1cccc(S(=O)(=O)N(C)c2ccccc2)c1	2.51%
Cc1onc(-c2ccccc2)c1C(=O)N1CCN(Cc2ccccc2)CC1	15.8%
Cc1cccc(NC(=O)/C(C#N)=C/c2ccccc2Cl)n1	18%
Cc1nnc(SC(C)C(=O)NCC2CCCO2)s1 (stereo not drawn)	-0.626%
COC(=O)c1sccc1NC(=O)Nc1cccc([N+](=O)[O-])c1	3.03%

Source: paper PMC4336329 (PLoS ONE, 2015)
